T1: hDLL3 (human, UniProt Q9NYJ7 27-492, limits assumed)
T1 construct: also called human DLL3 soluble protein
T1 sequence (looked up): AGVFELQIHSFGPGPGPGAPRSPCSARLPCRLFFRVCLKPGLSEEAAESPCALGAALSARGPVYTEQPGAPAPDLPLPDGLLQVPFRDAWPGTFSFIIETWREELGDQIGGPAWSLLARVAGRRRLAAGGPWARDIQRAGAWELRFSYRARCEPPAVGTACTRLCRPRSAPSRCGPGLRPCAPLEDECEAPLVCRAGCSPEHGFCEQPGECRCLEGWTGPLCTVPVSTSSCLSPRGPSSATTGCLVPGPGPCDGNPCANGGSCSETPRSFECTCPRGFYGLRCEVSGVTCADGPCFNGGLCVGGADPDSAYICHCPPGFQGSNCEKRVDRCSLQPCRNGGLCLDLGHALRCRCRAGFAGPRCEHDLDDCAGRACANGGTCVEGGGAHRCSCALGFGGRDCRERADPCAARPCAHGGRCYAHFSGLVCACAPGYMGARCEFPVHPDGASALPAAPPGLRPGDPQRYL


Experiments:
hFOLR1 [1] = target: T2, hFOLR1 (human, UniProt P15328 25-234, limits assumed); assay: ELISA
T2 construct: also called Human FOLR1; human FOLR1

hFOLR1 [2] = target: T2, hFOLR1; assay: BLI (Octet), captured on AHC sensor, antigen in solution
mFOLR1 [3] = target: T3, mFOLR1 (mouse, UniProt P35846 25-232, limits assumed); assay: ELISA
T3 construct: also called Mouse FOLR1; murine FOLR1

hDLL3 = target: T1, hDLL3; assay: BLI (Octet), captured on AHC sensor, antigen in solution
mFOLR1 [4] = target: T3, mFOLR1; assay: as above
T3 sequence (P35846 25-232 limits assumed): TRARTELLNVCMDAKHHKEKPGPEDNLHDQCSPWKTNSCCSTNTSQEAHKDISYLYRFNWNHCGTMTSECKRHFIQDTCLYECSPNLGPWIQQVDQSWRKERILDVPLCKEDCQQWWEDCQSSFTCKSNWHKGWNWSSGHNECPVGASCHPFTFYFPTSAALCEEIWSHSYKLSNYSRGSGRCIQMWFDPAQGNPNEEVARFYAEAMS

T2 sequence (P15328 25-234 limits assumed): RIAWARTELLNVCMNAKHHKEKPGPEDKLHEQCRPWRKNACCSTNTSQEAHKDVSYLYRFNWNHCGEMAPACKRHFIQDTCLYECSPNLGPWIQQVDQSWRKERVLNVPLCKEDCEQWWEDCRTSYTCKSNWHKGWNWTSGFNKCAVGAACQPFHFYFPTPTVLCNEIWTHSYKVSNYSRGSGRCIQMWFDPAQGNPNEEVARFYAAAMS

Row | EC50 (hFOLR1 [1]) [nM] | Kd (hFOLR1 [2]) [nM] | koff (hFOLR1 [2]) [s⁻¹] | kon (hFOLR1 [2]) [M⁻¹ s⁻¹] | EC50 (mFOLR1 [3]) [nM] | Kd (hDLL3) [nM] | koff (hDLL3) [s⁻¹] | kon (hDLL3) [M⁻¹ s⁻¹] | Kd (mFOLR1 [4]) [nM] | koff (mFOLR1 [4]) [s⁻¹] | kon (mFOLR1 [4]) [M⁻¹ s⁻¹] | Binder
1 | 0.14 | 2.85 | 0.000853 | 299000 |  |  |  |  |  |  |  | Anti-FOLR1x4 (GGS)4 (Fc fusion) QVQLVESGGGLVQPGGSLRLSCAASGFTVSNSVMAWYRQTPGNEREFVAIINSIGITNYADSVKGRFTISRDNSKNTLYLQMNSLRAEDTAVYVCNRNFDRIYWGQGTLVTVSSGGSGGSGGSGGSQVQLVESGGGLVQPGGSLRLSCAASGFTVSNSVMAWYRQTPGNEREFVAIINSIGITNYADSVKGRFTISRDNSKNTLYLQMNSLRAEDTAVYVCNRNFDRIYWGQGTLVTVSS[left out - human IgG1 Fc with C220S (EU numbers)]
2 | 0.13 | 2.75 | 0.00111 | 405000 | 0.08 | 1.53 | 0.000306 | 200000 | 8.32 | 0.00407 | 490000 | Anti-FOLR1x2; Anti-DLL3x2; (GGGGS)3 (bispecific antibody) QVQLVESGGGLVQPGGSLRLSCAASGFTVSNSVMAWYRQTPGNEREFVAIINSIGITNYADSVKGRFTISRDNSKNTLYLQMNSLRAEDTAVYVCNRNFDRIYWGQGTLVTVSSGGGGSGGGGSGGGGSEVQLVESGGGEVQPGGSLRLSCAASGSIFSINAMGWYRQAPGKQRELVAGFTGDTNTIYAESVKGRFTISRDNAKNTVYLQMSSLRAEDTAVYYCAADVQLFSRDYEFYWGQGTLVTVK[left out - human IgG1 Fc]
3 | 0.12 | 2.86 | 0.000953 | 333000 |  |  |  |  |  |  |  | Anti-FOLR1x4 (GGGGS)3 (Fc fusion) QVQLVESGGGLVQPGGSLRLSCAASGFTVSNSVMAWYRQTPGNEREFVAIINSIGITNYADSVKGRFTISRDNSKNTLYLQMNSLRAEDTAVYVCNRNFDRIYWGQGTLVTVSSGGGGSGGGGSGGGGSQVQLVESGGGLVQPGGSLRLSCAASGFTVSNSVMAWYRQTPGNEREFVAIINSIGITNYADSVKGRFTISRDNSKNTLYLQMNSLRAEDTAVYVCNRNFDRIYWGQGTLVTVSS[left out - human IgG1 Fc with C220S (EU numbers)]
4 |  |  |  |  | 0.09 | 1.43 | 0.000312 | 219000 | 7 | 0.00399 | 553000 | Anti-FOLR1x2; Anti-DLL3x2; (GGS)3 (bispecific antibody) QVQLVESGGGLVQPGGSLRLSCAASGFTVSNSVMAWYRQTPGNEREFVAIINSIGITNYADSVKGRFTISRDNSKNTLYLQMNSLRAEDTAVYVCNRNFDRIYWGQGTLVTVSSGGSGGSGGSEVQLVESGGGEVQPGGSLRLSCAASGSIFSINAMGWYRQAPGKQRELVAGFTGDTNTIYAESVKGRFTISRDNAKNTVYLQMSSLRAEDTAVYYCAADVQLFSRDYEFYWGQGTLVTVK[left out - human IgG1 Fc]
5 | 0.11 | 2.32 | 0.000932 | 401000 | 0.07 | 1.24 | 0.000267 | 215000 | 7.99 | 0.00386 | 483000 | Anti-FOLR1x2; Anti-DLL3x2; (GGS)4 (bispecific antibody) QVQLVESGGGLVQPGGSLRLSCAASGFTVSNSVMAWYRQTPGNEREFVAIINSIGITNYADSVKGRFTISRDNSKNTLYLQMNSLRAEDTAVYVCNRNFDRIYWGQGTLVTVSSGGSGGSGGSGGSEVQLVESGGGEVQPGGSLRLSCAASGSIFSINAMGWYRQAPGKQRELVAGFTGDTNTIYAESVKGRFTISRDNAKNTVYLQMSSLRAEDTAVYYCAADVQLFSRDYEFYWGQGTLVTVK[left out - human IgG1 Fc]

Source: patent US20260055180A1 (ABDERA THERAPEUTICS, published 2026)
